# In paper PMC4513104:
# The chains behind the UniProt entries cited, without tags or fusion partners.
# UniProt P05413: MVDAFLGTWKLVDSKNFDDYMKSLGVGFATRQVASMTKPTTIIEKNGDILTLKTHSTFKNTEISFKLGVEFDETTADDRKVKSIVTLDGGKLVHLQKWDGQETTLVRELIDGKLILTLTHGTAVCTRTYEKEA
# UniProt Q01469: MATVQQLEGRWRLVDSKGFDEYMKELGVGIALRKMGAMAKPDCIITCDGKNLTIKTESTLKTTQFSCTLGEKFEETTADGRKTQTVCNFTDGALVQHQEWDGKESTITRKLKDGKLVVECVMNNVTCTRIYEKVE
# UniProt P00722: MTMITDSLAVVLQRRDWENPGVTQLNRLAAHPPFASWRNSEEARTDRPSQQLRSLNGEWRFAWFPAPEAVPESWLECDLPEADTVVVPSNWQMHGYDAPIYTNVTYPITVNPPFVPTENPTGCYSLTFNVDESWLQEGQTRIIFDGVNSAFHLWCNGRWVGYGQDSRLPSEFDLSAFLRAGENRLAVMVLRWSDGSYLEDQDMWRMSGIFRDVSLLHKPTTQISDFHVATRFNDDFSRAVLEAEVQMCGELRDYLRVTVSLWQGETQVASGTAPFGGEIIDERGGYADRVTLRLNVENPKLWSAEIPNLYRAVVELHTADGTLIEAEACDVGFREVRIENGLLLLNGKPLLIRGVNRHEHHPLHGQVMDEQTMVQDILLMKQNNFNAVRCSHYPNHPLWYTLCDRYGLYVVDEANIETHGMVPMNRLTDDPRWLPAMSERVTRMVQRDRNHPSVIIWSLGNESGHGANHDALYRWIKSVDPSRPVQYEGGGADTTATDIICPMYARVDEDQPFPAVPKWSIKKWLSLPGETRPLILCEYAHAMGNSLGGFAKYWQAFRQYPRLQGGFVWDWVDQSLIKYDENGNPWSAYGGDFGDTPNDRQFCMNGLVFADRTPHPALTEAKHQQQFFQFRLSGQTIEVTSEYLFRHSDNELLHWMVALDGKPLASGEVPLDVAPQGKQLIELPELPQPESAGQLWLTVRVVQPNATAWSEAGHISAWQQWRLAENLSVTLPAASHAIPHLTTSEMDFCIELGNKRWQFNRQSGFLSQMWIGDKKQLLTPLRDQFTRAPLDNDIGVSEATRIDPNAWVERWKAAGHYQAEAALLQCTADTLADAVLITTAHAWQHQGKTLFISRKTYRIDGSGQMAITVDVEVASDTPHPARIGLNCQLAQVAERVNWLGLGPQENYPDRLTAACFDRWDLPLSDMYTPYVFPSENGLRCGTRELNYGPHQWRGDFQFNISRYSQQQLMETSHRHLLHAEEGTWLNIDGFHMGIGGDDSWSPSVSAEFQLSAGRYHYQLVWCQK
# UniProt Q9DBL9: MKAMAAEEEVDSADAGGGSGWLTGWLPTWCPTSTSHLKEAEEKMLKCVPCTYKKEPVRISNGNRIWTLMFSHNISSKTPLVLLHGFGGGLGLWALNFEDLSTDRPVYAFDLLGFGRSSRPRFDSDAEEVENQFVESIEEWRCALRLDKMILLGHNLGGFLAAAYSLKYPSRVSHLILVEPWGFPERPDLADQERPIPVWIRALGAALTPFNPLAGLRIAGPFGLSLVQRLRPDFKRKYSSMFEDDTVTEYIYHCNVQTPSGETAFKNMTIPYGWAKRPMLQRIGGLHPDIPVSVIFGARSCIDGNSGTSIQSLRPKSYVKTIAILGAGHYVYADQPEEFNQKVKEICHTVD
# Positions count from the first letter of the chain named. Results are given in words; binding and its absence hold for the method and conditions named. For part of these data: Binding seen in cells or lysates may run through a third protein. Some results given as binding are weak or reduced against the parent protein; the word gives no strength.
# Experiments:
# purified Atgl = target: T1, purified Atgl (UniProt Q8BJ56); test: ELISA; competitive solid phase assay: plates coated with 1 μg of purified (partially purified) Atgl; bacterial lysates (60 μg of total protein) containing LacZ, A-Fabp or mCgi-58, the last together with purified Strep-A-Fabp (0.5-, 1- or 5-fold molar excess over Atgl); anti-Strep primary and Hrp-conjugated secondary antibody, absorbance 450/620 nm; only the target purified
# T1 sequence: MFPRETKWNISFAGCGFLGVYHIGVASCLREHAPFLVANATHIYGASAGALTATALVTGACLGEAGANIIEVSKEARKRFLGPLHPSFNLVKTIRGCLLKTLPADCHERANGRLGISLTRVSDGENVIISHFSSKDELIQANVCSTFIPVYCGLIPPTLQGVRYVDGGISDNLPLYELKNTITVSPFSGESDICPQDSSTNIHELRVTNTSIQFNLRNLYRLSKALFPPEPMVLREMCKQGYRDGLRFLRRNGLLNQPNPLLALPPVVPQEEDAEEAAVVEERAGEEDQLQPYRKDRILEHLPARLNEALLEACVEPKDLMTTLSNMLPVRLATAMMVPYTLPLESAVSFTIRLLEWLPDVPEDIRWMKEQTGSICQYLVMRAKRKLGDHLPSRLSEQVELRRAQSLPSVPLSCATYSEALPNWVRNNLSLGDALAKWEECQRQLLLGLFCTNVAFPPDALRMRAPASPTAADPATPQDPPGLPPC
# [1] = target: T2, Fatty acid-binding protein, adipocyte (mouse) (UniProt P04117); test: co-IP; endogenous proteins in gonadal WAT lysate of an overnight fasted C57BL/6 mouse (700 μg of total protein; 50 mM Tris, pH 7.4, 150 mM NaCl, 1% Nonidet P-40, 1 mM EDTA); monoclonal antibodies against A-Fabp, Cgi-58 or Gfp (control), protein A/G-Sepharose, Western blotting
# T2 sequence: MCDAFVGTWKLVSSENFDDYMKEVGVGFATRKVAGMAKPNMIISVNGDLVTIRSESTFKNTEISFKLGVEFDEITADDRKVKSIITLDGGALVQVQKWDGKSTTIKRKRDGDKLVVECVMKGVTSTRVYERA
# [2] = target: Strep-tagged A-Fabp (human) (UniProt P15090); test: ELISA; solid phase assay: 96-well polystyrene plates coated overnight with 3 μg of purified Fabp, blocked with 5% delipidated BSA in TBS (50 mM Tris, pH 8.0, 150 mM NaCl); COS-7 cell extracts (10–60 μg of total protein) with His-tagged proteins, 2% BSA, 0.05% Tween 20, overnight; anti-His primary and Hrp-conjugated secondary antibody, absorbance 450/620 nm; only the target purified
# A-Fabp^R31E (human) = target: T3, A-Fabp^R31E (human) (UniProt P15090); test: as above
# T3 sequence: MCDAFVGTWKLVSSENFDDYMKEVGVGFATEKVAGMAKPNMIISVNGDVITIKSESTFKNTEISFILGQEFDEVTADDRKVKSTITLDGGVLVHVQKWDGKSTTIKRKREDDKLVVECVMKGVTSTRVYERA
# A-Fabp^K22E (human) = target: T4, A-Fabp^K22E (human) (UniProt P15090); test: as above
# T4 sequence: T3 sequence with K22E, E31R
# H-Fabp (human) = H-Fabp (human) (UniProt P05413); test: as above
# A-Fabp^D77G (human) = target: T5, A-Fabp^D77G (human) (UniProt P15090); test: as above
# T5 sequence: T3 sequence with E31R, D77G
# L-Fabp (human) = target: T6, L-Fabp (human) (UniProt P07148); test: as above
# T6 sequence: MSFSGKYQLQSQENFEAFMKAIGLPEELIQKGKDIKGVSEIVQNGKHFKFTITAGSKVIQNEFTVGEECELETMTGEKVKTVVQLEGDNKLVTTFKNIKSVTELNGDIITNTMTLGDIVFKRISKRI
# A-Fabp^R127Q (human) = target: T7, A-Fabp^R127Q (human) (UniProt P15090); test: as above
# T7 sequence: T3 sequence with E31R, R127Q
# A-Fabp^K22E,R31E (human) = target: T8, A-Fabp^K22E,R31E (human) (UniProt P15090); test: as above
# T8 sequence: T3 sequence with K22E
# A-Fabp^F58S (human) = target: T9, A-Fabp^F58S (human) (UniProt P15090); test: as above
# T9 sequence: T3 sequence with E31R, F58S
# A-Fabp^D78G (human) = target: T10, A-Fabp^D78G (human) (UniProt P15090); test: as above
# T10 sequence: T3 sequence with E31R, D78G
# E-Fabp (human) = E-Fabp (human) (UniProt Q01469); test: as above
# I-Fabp (human) = target: T11, I-Fabp (human) (UniProt P12104); test: as above
# T11 sequence: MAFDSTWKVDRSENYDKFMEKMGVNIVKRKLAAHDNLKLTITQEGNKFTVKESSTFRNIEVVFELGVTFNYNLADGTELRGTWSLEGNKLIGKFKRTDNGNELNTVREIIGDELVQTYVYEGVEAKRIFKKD
# A-Fabp^K59E (human) = target: T12, A-Fabp^K59E (human) (UniProt P15090); test: as above
# T12 sequence: T3 sequence with E31R, K59E
substance,measurement,setting,value
LacZ (bacterial lysate) (from UniProt P00722 1-1024) (enzyme),binding,purified Atgl,"no binding (tested: bacterial lysate, 60 μg of total protein)"
Strep-tagged Cgi-58 (from UniProt Q9DBL9 1-351),binding,purified Atgl,binds
"Cgi-58 (endogenous, murine WAT) (from UniProt Q9DBL9 1-351)",binding,[1],binds
His-tagged β-galactosidase (LacZ) (from UniProt P00722 1-1024) (enzyme),binding,[2],"no binding (tested: cell extracts, 10–60 μg of total protein)"
Strep-tagged A-Fabp (from UniProt P15090 1-132),binding,purified Atgl,"no binding (tested: bacterial lysate, 60 μg of total protein)"
His-tagged murine Cgi-58 (from UniProt Q9DBL9 1-351),binding,A-Fabp^R31E (human),binds
same,binding,A-Fabp^K22E (human),binds
same,binding,H-Fabp (human),binds
same,binding,A-Fabp^D77G (human),binds
same,binding,L-Fabp (human),binds
same,binding,A-Fabp^R127Q (human),binds
same,binding,"A-Fabp^K22E,R31E (human)",binds
same,binding,A-Fabp^F58S (human),binds
same,binding,A-Fabp^D78G (human),binds
same,binding,E-Fabp (human),binds
same,binding,I-Fabp (human),binds
same,binding,A-Fabp^K59E (human),binds
same,binding,[2],binds
